Data reported in the supplement of paper PMC11417369.
The other results are listed elsewhere or left out.

tested on: PfAP2-HC AP2 domain (GST-tagged); test: gcPBM binding intensity (ln(normalized median fluorescence intensity)); higher = stronger DNA binding
Method in brief: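 Probes on an Agilent 4 × 180k array were primer-extended, double-stranded and 36 bp long, taken from intergenic genomic regions, with negative controls added. GST-tagged P. falciparum DNA-binding domains from E. coli, about 25 μg on average, were applied to the array for 1 h in 1× PBS containing 1% milk, 0.2 mg/ml BSA, 0.5% salmon testes DNA and 0.03% Triton X-100. Binding intensity, obtained after Alexa488 anti-GST antibody detection and a 488 nm scan, is the highest Masliner-normalised natural-log median intensity across replicate spots of either probe orientation.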

| Sequence | gcPBM binding intensity (ln) |
| --- | --- |
| TTATAAAAATTTAGTTGTACATGTCAAATTATCAAT [XGTACX_site7229] | 9.47 |
| TTTTTTGTACCAAAAAAAAAAAAAAGAAAAAAAAAC [CACACA_negctrl_site1416] | 9.41 |
| TATTTTATTATTATTATTTCTTTATAGTGTATTCTA [CACACA_negctrl_site517] | 9.65 |
| TTTTCGTAACTGATTCAACACACAAAAGGGGGAAAA [CACACA_site8517] | 9.77 |
| AATATATAGCTAAAAACACACAAATATATACACATA [CACACA_site9203] | 9.97 |
| TATTTTATTATTATTATTAGTATGATTTCTTTATAG [CACACA_negctrl_site550] | 9.5 |
| GGATAGGCATAACATAGTACGTACAAATATATATAT [XGTACX_site454] | 9.74 |
| ATAAAAAAAAAAACAGTAAAATTATAATTATAATTA [TGCATGCA_negctrl_site356] | 9.59 |
| TTAACAAATAAACACACACACACACCCAAAAAAAAA [CACACA_site8068] | 11.1 |
| AAAAGCACAAAAAATACACACACAAAAAATAAAAAA [CACACA_site8545] | 10.2 |
| TAATGATAAATACATACACACAAAAAATGATATATA [CACACA_site7258] | 9.95 |
| TATATCCCTTAGAATACACACCCATATGAGTGTGAA [CACACA_site8965] | 9.48 |
| AATGTAAAATCTTCATATACATTTAAGTCTGTATTT [TGCATGCA_negctrl_site183] | 9.74 |
| ACAAAAATTAAATAAAGTACATTTTTAAAATACGTA [XGTACX_site3880] | 9.64 |
| AGCTGAAAAAAAAGCTTGCACACGTATTTGCTTTAT [CACACA_site1512] | 9.81 |
| CATATTATATTCTGCTTACACACATATATATATATA [CACACA_site3059] | 9.9 |
| TTTTTTTGTTATATCCTGCACTTCTTAACTATATTA [GTGCAC_site9807] | 9.83 |
| AATAATAAGAATAACGCATGCACATATAATATAGAA [TGCATGCA_site3] | 10 |
| AATATGTAGTAATCAAGTACTAATGTCTTAATTCGG [XGTACX_site308] | 9.58 |

| Sequence | gcPBM binding intensity (ln) |
| --- | --- |
| GTTTTTTATATAAGGTGGTCAACATTGTAATGTTAA [XGTACX_site3204] | 9.54 |
| ATATAAATTGGCAATAGTACATAAAGGCATAGAAAG [XGTACX_site2674] | 9.87 |
| GTATATATGTATATGTGTACACATATTCTTAACTCA [XGTACX_site309] | 10.2 |
| AAATTACACATCCATACACACATATTTTTTTTAATT [CACACA_site5242] | 10 |
| AATAATAGAAGCACCCACCCACCACCACCCACACAT [CACACA_negctrl_site1033] | 10.9 |
| GAGAAACTTGTTTAAACATGCACAAAAAAAAAAAAA [TGCATGCA_site340] | 9.35 |
| TATAAAATAAATTGTGCACACATATTTATAAATATG [CACACA_site2330] | 9.99 |
| TATATGGAAAATTAAAGTACTAAAGAATAAATAGAA [XGTACX_site8796] | 9.73 |
| TATAGATACATATACACACACACACCGACATATATA [CACACA_site9138] | 10.8 |
| GTAGTTACATATAGGGTGCTCCAATAGTTGACCTCG | 9.53 |
| AAATAAAAAAAGGGAACATGCAATATGTACAAATAT [TGCATGCA_site869] | 9.89 |
| TCATAGGTTCAAAAGGGTACATTAATACATACATAT [XGTACX_site2236] | 9.74 |
| AGCATTTTTCATTTTGCACACATGTTTTATGGGTAT [CACACA_site5839] | 10.1 |
| CATATATATTGATATGCACACCTATGTATTGATGTA [CACACA_site8269] | 9.88 |
| TCTTTTTTCTTTTTTTCACACATTATTTTTTAAATA [CACACA_site5197] | 9.71 |
| ACGATGAATATGTAAAGTACGCAAATGTAACAATAT [XGTACX_site728] | 9.91 |
| AGCTTCATATTATGGAGTACTATTAAAAATAAATAA [XGTACX_site2649] | 9.29 |
| AAATATAACATCATCACACACATATACTTTATATGC [CACACA_site1126] | 10.7 |
| TAATTAGATTATTTTTGTACATATTATTATAGGTTA [XGTACX_site2077] | 9.57 |

| Sequence | gcPBM binding intensity (ln) |
| --- | --- |
| AGATATTATAAAATATGTACATATATATATATATAT [XGTACX_site2088] | 9.66 |
| AAAGTAATAATGATTTGTACATATATATATATATAT [XGTACX_site8821] | 9.7 |
| TTATCTTTTTTCGTTTGTACGTAACCATATTACTAT [XGTACX_site8853] | 9.85 |
| ATTTTTTATGTTAATGCATGCTCATGTGTATTTCAT [TGCATGCA_site751] | 9.86 |
| ATGCAAATGTGCATCACACACACTAATGGGTATGTA [CACACA_site2893] | 9.85 |
| GGAATATATATACATACACACATATATATATATATA [CACACA_site1666] | 10 |
| AAAAATAATTATTCGTGTACAAAAAAAAAAATATAA [XGTACX_site439] | 9.73 |
| AAAAAAAAAAAAAAAAGTACAAGCATTGCGTTTTAA [XGTACX_site6075] | 9.38 |
| AGAAAAAAAAAAAAAAAAATATATATATATATATAT [TGCATGCA_negctrl_site411] | 9.31 |
| AAAAAAAAAAAAAAAACACACATACACGCACGCACA [CACACA_site7569] | 10.8 |
| GTATATATATACCATTGTACTTTCGTAAAAATATTT [XGTACX_site4846] | 9.58 |
| TTTTATTATAATAATTGTACAAAAATTATTTAATAT [XGTACX_site6054] | 9.37 |
| TTAATTTATTATCTTTGTACACAATTAAAAAAAAAA [XGTACX_site3469] | 9.29 |
| ATAAATATACATTATACCGACCATGTGGATATTATA [XGTACX_negctrl_site241] | 9.62 |
| TTATTTTTATATTTTAATTTTAAAAAAATTTTAATT [CACACA_negctrl_site777] | 9.3 |
| ATTATACATATTATATGTACATATATAAATAAATAA [XGTACX_site7076] | 9.71 |
| TTTTGGTTTTGTTCTACACACATAAAAAAAAAAAAG [CACACA_site2276] | 9.45 |
| ATATATCAATATGGAATATATATATATATATATATA [TGCATGCA_negctrl_site502] | 9.4 |
